PubChem BioAssay AID624417 (National Center for Advancing Translational Sciences (NCATS), 2012)
Values joined by “and” are separate entries in the source; they are usually repeats but may differ in a detail not shown here. Identical values can stand only once. Out of some 410,000 compounds screened, about 6,400 (1.6%) were called active. The inconclusive results got no clear call from the source; some entries with a clear call stand among them for comparison. The call rests on the fitted dose curve; in most records, active means well fitted inhibition curve with a large enough effect; inconclusive means small, poorly fitted or top-dose-only effect; inactive means no such curve, though single readings can be large or run the other way. Potencies of inconclusive entries are doubtful fits and often do not repeat.

target: Glucagon-like peptide 1 receptor (Homo sapiens) (UniProt P43220); experiment: qHTS of GLP-1 Receptor Inverse Agonists (Inhibition Mode); conditions: HEK293 GLP-1R CRE-luciferase, luminescence, 24 h, GLP-1R form is constitutively active; series mostly up to 38.3 µM; further: nearly all actives have a fitted effect of over 55% in size
Procedure, shortened: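 Assay principle: reduced luminescence from a cAMP-responsive reporter in HEK293 cells co-expressing a constitutively active GLP-1R. Conditions: 24 hr compound incubation, 37 deg C, 5% CO2.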
Potency means the concentration at half of the fitted maximal effect; tags describe the fitted curve by direction and shape.

UniProt P43220, sequence (P43220 whole entry, looked up): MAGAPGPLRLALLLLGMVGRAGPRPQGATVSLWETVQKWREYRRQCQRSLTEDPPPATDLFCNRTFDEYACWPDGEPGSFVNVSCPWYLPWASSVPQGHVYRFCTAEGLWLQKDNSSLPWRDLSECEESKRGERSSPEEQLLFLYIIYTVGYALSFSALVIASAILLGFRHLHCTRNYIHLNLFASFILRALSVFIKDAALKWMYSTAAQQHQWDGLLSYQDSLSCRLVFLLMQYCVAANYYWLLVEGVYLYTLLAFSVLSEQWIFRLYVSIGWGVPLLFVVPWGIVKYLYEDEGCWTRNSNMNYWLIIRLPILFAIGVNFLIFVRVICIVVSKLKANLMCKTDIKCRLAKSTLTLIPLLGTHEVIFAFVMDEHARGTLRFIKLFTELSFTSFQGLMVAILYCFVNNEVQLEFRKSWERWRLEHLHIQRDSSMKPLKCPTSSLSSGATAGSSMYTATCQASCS

| SMILES | Potency |
| --- | --- |
| Cc1cccc(CC2S/C(=N/c3ccccn3)NC2=O)c1 (configuration not stated) | inconclusive: 28.2 µM [inhibitor, partial curve, poor fit] |
| O=C(NC1CCCC1)C(c1ccccc1)n1c(Cc2cc(F)cc(F)c2)nc2ccccc21 (configuration not stated) | inconclusive: 28.2 µM [inhibitor, single point] |
| CCC(/C=C1\Sc2ccc(OC)cc2N1CCO)=C\c1sc2ccc(OC)cc2[n+]1CCO | active: 10 µM |
| Cc1nc(-c2ccc(F)cc2)c(CC(=O)N2CCN(S(=O)(=O)c3ccccc3Br)CC2)s1 | inconclusive: 11.2 µM [inhibitor, partial curve, poor fit] |
| COC(=O)[C@@]12C[C@@H](CC(=O)NCc3cccc(C(F)(F)F)c3)C(=O)N(Cc3cccc4ccccc34)C1=CCC(C)(C)C2 | inconclusive: 14.1 µM [inhibitor, partial curve, poor fit] |
| O=[N+]([O-])c1cc(Cl)cc(/C=N\Nc2ccccn2)c1O | inconclusive: 3.55 µM [inhibitor, full curve, poor fit] |
| CCCC(C)C(=O)Nc1nc(C)c(-c2csc(Nc3ccc(Cl)cc3)n2)s1 (configuration not stated) | inconclusive: 12.6 µM [inhibitor, single point] |
| O=C(O)c1ccccc1C(=O)Nc1ccccc1 | inconclusive: 28.2 µM [inhibitor, single point] |
| COc1ccc(CN(CCC(C)C)S(=O)(=O)c2ccccc2Br)c(OC)c1 | inconclusive: 20 µM [inhibitor, single point] |
| CC(=O)n1cc(/C=N/NC(=O)c2ccc(Cl)cc2)c2ccccc21 | inconclusive: 10 µM [inhibitor, single point] |
| CCN(CC1CCCO1)C(=O)c1cc(COc2cc(C)c(Cl)c(C)c2)on1 (configuration not stated) | inconclusive: 6.31 µM [inhibitor, full curve, poor fit] |
| Oc1ccc(Cl)cc1-c1cc(-c2ccccc2Cl)[nH]n1 | inconclusive: 11.2 µM [inhibitor, single point] |
| O=C(CCN1CCCCC1)c1ccc2c(c1)OCCO2 | inactive |
| COc1ccccc1NC(=O)C(C)N(C)CCOc1ccccc1 (configuration not stated) | active: 11.2 µM |
| CCc1ccccc1NC(=O)Cn1nnc(C(=O)NCc2cccs2)c1N | inconclusive: 2.24 µM [inhibitor, full curve, poor fit] and inconclusive: 1.12 µM [inhibitor, full curve, poor fit] |
| Cc1ccc(NC(=O)CSCC(=O)N(C)CCOc2ccc(Cl)cc2)cc1 | inconclusive: 20 µM [inhibitor, single point] |
| CN(C(=O)CSc1nc2ccccc2n1CC(=O)N(C)c1ccc(F)cc1)c1ccccc1 | inconclusive: 7.94 µM [inhibitor, partial curve, poor fit] |
| Cc1nnsc1C(=O)N1CCCC(Nc2ccc(C(C)C)cc2)C1 (configuration not stated) | inconclusive: 15.8 µM [inhibitor, partial curve, poor fit] |
| O=C(/C=C/Nc1ccc(F)cc1F)c1ccco1 | inconclusive: 4.47 µM [inhibitor, partial curve] |

| SMILES | Potency |
| --- | --- |
| CSC1=NCCN1C(=O)C(C)(C)Oc1ccc(Cl)cc1 | inconclusive: 28.2 µM [inhibitor, single point] |
| C/C(=C\c1ccccc1)C(=O)c1c(C)cc(C)[nH]c1=O | inconclusive: 7.08 µM [inhibitor, partial curve, poor fit] |
| Cc1ccsc1-c1nc(CSCC(=O)N2CCN(c3ccccc3)CC2)c(C)o1 | inconclusive: 10 µM [inhibitor, partial curve, poor fit] |
| COCCN(C(=O)COC(=O)C1CCC(C(C)(C)C)CC1)c1c(N)n(Cc2ccccc2)c(=O)[nH]c1=O (configuration not stated) | inconclusive: 28.2 µM [inhibitor, single point] |
| COc1ccccc1NS(=O)(=O)c1cc(NC(=O)Nc2cccc(C)c2)ccc1N1CCCCC1 | inconclusive: 3.55 µM [inhibitor, partial curve, poor fit] |
| O=C(COC(=O)CNC(=O)C1CCCCC1)NCc1ccccc1 | inconclusive: 2.24 µM [inhibitor, full curve] |
| COc1ccc(/C=N\NC(=O)CNC(=O)C(c2ccccc2)c2ccccc2)cc1[N+](=O)[O-] | inconclusive: 28.2 µM [inhibitor, single point] |
| Cc1ccc(NNC(=O)c2ccno2)cc1Cl | inconclusive: 5.62 µM [inhibitor, full curve, poor fit] |
| CC1=C(C(=O)OCC(C)C)C(c2ccsc2)C2=C(CCCC2=O)N1 (configuration not stated) | inconclusive: 8.91 µM [inhibitor, partial curve, poor fit] |
| COc1cc(OC)cc(C(=O)N2CCN(Cc3ccccc3Br)CC2)c1 | inconclusive: 31.6 µM [inhibitor, single point] |
| COc1cc(/C=C2\SC(=S)N(CC(=O)O)C2=O)ccc1OS(=O)(=O)c1ccc(C)cc1 | inconclusive: 28.2 µM [inhibitor, partial curve, poor fit] |
| CC1=C(C(=O)OCC2CCCCC2)C(c2ccc(F)cc2)NC(=O)N1 (configuration not stated) | inconclusive: 8.91 µM [inhibitor, partial curve, poor fit] |
| CC(C)/C=C/CN1CCCC(N2CCN(c3cccc(Cl)c3)CC2)C1 (configuration not stated) | inconclusive: 28.2 µM [inhibitor, single point] |
| O=C(c1cccc(S(=O)(=O)N2CCCCC2)c1)N1CCc2ccccc21 | inconclusive: 25.1 µM [inhibitor, single point] |
| Cc1ccc2[nH]c(O)c(N=NC(=O)C3CC3c3ccccc3)c2c1Br (configuration not stated) | inactive |
| COc1cc(/C=C/C(=O)c2ccc(O)cc2)ccc1OCC#N | inconclusive: 28.2 µM [inhibitor, single point] |
| O=C(Nc1ccc(Cl)cc1)OCc1cc(-c2ccccc2)on1 | inconclusive: 28.2 µM [inhibitor, single point] |
| O=C1CC(c2ccc(F)cc2)CC2=C1C(c1ccc([N+](=O)[O-])o1)Nc1ccccc1N2 (configuration not stated) | inconclusive: 11.2 µM [inhibitor, partial curve] |
